Test results published in patent US20200055958A1 (TRICAN BIOTECHNOLOGY, published 2020).

T1: ANG1 (UniProt Q15389 20-498, limits assumed)
T1 construct: also called angiopoietin 1
T1 sequence (looked up): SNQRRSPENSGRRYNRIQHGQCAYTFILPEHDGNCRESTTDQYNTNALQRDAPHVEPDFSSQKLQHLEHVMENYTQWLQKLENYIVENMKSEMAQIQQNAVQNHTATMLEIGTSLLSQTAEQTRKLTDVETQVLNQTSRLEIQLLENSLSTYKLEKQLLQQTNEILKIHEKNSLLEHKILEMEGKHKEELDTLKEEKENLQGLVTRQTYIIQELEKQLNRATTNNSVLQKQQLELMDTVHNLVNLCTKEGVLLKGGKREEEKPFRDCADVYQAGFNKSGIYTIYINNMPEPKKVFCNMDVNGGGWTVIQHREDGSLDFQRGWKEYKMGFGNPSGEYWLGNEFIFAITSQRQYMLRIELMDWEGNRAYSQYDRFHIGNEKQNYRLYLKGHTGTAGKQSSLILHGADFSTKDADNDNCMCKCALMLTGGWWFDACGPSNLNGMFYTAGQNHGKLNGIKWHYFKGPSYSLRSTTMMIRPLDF

T2: ANG2 (UniProt O15123 19-496, limits assumed)
T2 construct: also called angiopoietin 2; recombinant ANG2 (PeproTech)
T2 sequence (looked up): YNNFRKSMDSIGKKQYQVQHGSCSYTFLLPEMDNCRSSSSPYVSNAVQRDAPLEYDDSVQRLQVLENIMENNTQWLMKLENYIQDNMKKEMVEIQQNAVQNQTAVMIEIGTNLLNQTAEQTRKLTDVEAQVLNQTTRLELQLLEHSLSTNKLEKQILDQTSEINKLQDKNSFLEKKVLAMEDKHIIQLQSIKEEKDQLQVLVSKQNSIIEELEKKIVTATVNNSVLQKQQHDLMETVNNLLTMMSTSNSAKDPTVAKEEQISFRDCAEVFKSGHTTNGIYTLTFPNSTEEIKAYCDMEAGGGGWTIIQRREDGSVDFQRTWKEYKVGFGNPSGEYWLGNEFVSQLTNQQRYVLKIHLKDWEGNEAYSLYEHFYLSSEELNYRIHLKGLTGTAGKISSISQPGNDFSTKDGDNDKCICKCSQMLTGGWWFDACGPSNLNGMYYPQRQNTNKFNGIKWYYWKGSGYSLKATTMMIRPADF

T3: VEGF-A (human, UniProt P15692-4 27-191, limits assumed)
T3 sequence (looked up): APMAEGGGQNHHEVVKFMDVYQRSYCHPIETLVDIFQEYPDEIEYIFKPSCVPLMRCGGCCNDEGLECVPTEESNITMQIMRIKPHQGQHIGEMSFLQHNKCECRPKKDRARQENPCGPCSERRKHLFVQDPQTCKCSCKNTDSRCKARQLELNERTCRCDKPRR


Tests used:
[1] = molecular target: T1, ANG1; assay: direct ELISA, ligand coated, anti-human IgG Fc HRP detection
Description: (§1) The ligand pre-coated wells were first incubated with various concentrations of purified AT-Fc protein.
(§2) Overnight ligand pre-coated (100 ng/well) wells were washed 3 times with 1× PBS and blocked with 400 ul 5% non-fat skin milk in PBS for 2 hr. After blocking, 100 ul of 3-fold serially diluted purified protein started from 30 nM were added to each corresponding well in duplicate and incubated for 1 hr at room temperature on shaker. After binding, wells were washed 3 times with PBST (1× PBS with 0.1% Tween-20) before adding 100 ul of 1:2500 diluted goat anti-human IgG Fe HRP conjugates (Jackson ImmunoResearch Inc.) to each well and incubated on shaker for another hour. After final washing, TMB reagent (Invitrogen, Inc.) was added and OD absorption at 450 nm was measured. The data analyzed by sigmoidal curve fitting using Prism 4. Binding of AT-Fc, Fc-VT, and AT-Fc-VT to ANG or VEGF were assessed by similar assays.

[2] = molecular target: T2, ANG2; assay: as above
Description: as §1, §2

[3] = molecular target: T3, VEGF-A; assay: cell-based or functional assay
[4] = molecular target: T3, VEGF-A; assay: direct ELISA, VEGF-A coated, anti-human IgG Fc HRP detection
Description: The bound proteins after washing were detected with HRP conjugated goat anti-human IgG Fc specific antibody and OD₄₅₀ readings were plotted, and the results indicated Fc-VT binds to VEGF-A with EC₅₀ of 0.33 nM.
as §2

[5] = molecular target: T3, VEGF-A; assay: direct ELISA, ligand coated, anti-human IgG Fc HRP detection
Description: as §1, §2

Row | EC50 [1] | EC50 [2] | IC50, VEGF-dependent HUVEC cell proliferation assay (MTS) [3] | EC50 [4] | EC50 [5] | Binder
1 | 4.26 nM | 2.01 nM | – | – | – | AT-Fc protein (Tie2 ECD amino acid residues 23-448 fused to the N-terminal of IgG1 Fc) (Fc fusion) AMDLILINSLPLVSDAETSLTCIASGWRPHEPITIGRDFEALMNQHQDPLEVTQDVTREWAKKVVWKREKASKINGAYFCEGRVRGEAIRIRTMKMRQQASFLPATLTMTVDKGDNVNISFKKVLIKEEDAVIYKNGSFIHSVPRHEVPDILEVHLPHAQPQDAGVYSARYIGGNLFTSAFTRLIVRRCEAQKWGPECNHLCTACMNNGVCHEDTGECICPPGFMGRTCEKACELHTFGRTCKERCSGQEGCKSYVFCLPDPYGCSCATGWKGLQCNEACHPGFYGPDCKLRCSCNNGEMCDRFQGCLCSPGWQGLQCEREGIQRMTPKIVDLPDHIEVNSGKFNPICKASGWPLPTNEEMTLVKPDGTVLHPKDFNHTDHFSVAIFTIHRILPPDSGVWVCSVNTVAGMVEKPFNISVKVLPKPLAS[here human IgG1 Fc without letters]
2 | – | – | 0.2 nM | 0.33 nM | – | Fc-VT protein (IgG1 Fc, GS linker, chimeric VEGFR1 ECD D2 / VEGFR2 ECD D3 at the C-terminal) (Fc fusion) [here human IgG1 Fc and a few adjoining residues without letters]GGGSGGGGSGGGGSGDTGRPFVEMYSEIPEIIHMTEGRELVIPCRVTSPNITVTLKKFPLDTLIPDGKRIIWDSRKGFIISNATYKEIGLLTCEATVNGHLYKTNYLTHRQTNTIIDVVLSPSHGIELSVGEKLVLNCTARTELNVGIDFNWEYPSSKHQHKKLVNRDLKTQSGSEMKKFLSTLTIDGVTRSDQGLYTCAASSGLMTKKNSTFVRVHEK
3 | – | 2.57 nM | 0.26 nM | – | 0.35 nM | AT-Fc-VT bi-functional fusion protein (Fc fusion, also called bi-functional fusion protein AT) AMDLILINSLPLVSDAETSLTCIASGWRPHEPITIGRDFEALMNQHQDPLEVTQDVTREWAKKVVWKREKASKINGAYFCEGRVRGEAIRIRTMKMRQQASFLPATLTMTVDKGDNVNISFKKVLIKEEDAVIYKNGSFIHSVPRHEVPDILEVHLPHAQPQDAGVYSARYIGGNLFTSAFTRLIVRRCEAQKWGPECNHLCTACMNNGVCHEDTGECICPPGFMGRTCEKACELHTFGRTCKERCSGQEGCKSYVFCLPDPYGCSCATGWKGLQCNEACHPGFYGPDCKLRCSCNNGEMCDRFQGCLCSPGWQGLQCEREGIQRMTPKIVDLPDHIEVNSGKFNPICKASGWPLPTNEEMTLVKPDGTVLHPKDFNHTDHFSVAIFTIHRILPPDSGVWVCSVNTVAGMVEKPFNISVKVLPKPLAS[here human IgG1 Fc without letters]GGGSGGGGSGGGGSGDTGRPFVEMYSEIPEIIHMTEGRELVIPCRVTSPNITVTLKKFPLDTLIPDGKRIIWDSRKGFIISNATYKEIGLLTCEATVNGHLYKTNYLTHRQTNTIIDVVLSPSHGIELSVGEKLVLNCTARTELNVGIDFNWEYPSSKHQHKKLVNRDLKTQSGSEMKKFLSTLTIDGVTRSDQGLYTCAASSGLMTKKNSTFVRVHEK
